Results reported in the RNAGym collection of RNA variant scans (doi:10.1093/nar/gkz1192).
Read counts are not given, so values of variants with three or more changes are uncertain.

B1: CPEB3 Ribozyme (parent)
chain: UAACAGGGGGCCACAGCAGAAGCGUUCACGUCGCAGCCCCUGUCAGAUUCUGGUGAAUCUGCGAAUUCUGCUGUAUAUCUC

Variants of: B1
Assay: self-cleavage, relative activity (ratio to wild type); higher = more cleavage; in vitro, sequencing
Procedure, shortened: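 Relative activity compares each variant's cleaved/total read fraction with that of the unmutated ribozyme. To get these fractions, barcoded CPEB3 ribozyme libraries from rounds of error-prone PCR were transcribed with T7 RNA polymerase for 5 hours at 37°C and then given 15 min of DNase I treatment before EDTA was added. The RNAs were reverse transcribed with template switching and sequenced on Illumina, and DNA sequencing linked barcodes to variants. A minimum of 5 reads applied, and three batches were averaged.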

| Variant | self-cleavage |
| --- | --- |
| A3G G52U A75U | 1.07 |
| A3G G55U U72C | 1.06 |
| A3G G61A U67C U69C | 0.39 |
| A3G G63A A64G A65G | 0.21 |
| A3G U25A A28U U51A A57G | 0.08 |
| A3G U25A A35G U41A C62U U72C | 0.08 |
| A3G U25A A45U | 0.18 |
| A3G U25A C38A A56U | 0.18 |
| A3G U25A C40U | 0.12 |
| A3G U25A C68A | 0.44 |
| A3G U25A U26C U31A U41A U76A | 0.12 |
| A3G U25A U26C U31C G73A | 0.14 |
| A3G U25A U31A | 0.54 |
| A3G U25A U51A U72C | 0.08 |
| A3G U25A U54C | 0.15 |
| A3G U25A U60C A64G | 0.37 |
| A3G U25A U66C | 0.1 |
| A3G U25A U69A | 0.38 |
| A3G U25A U80A | 0.13 |
| A3G U25C A28U A64U | 0.33 |
| A3G U25C A35G | 0.43 |
| A3G U25C A35G A45G A56G | 0.4 |
| A3G U25C A35G G63A | 0.18 |
| A3G U25C A35G U60C U69C | 0.11 |

| Variant | self-cleavage |
| --- | --- |
| A3G U25C A35U A57G | 0.4 |
| A3G U25C A45G U54C U72C U78A | 0.07 |
| A3G U25C A47G A57G A64G | 0.21 |
| A3G U25C A47G U69C | 0.35 |
| A3G U25C A47U A56G U72C | 0.31 |
| A3G U25C A57G U67A | 0.25 |
| A3G U25C C27U U31C A35G A47U | 0.17 |
| A3G U25C C32A A45G A64U U78C | 0.16 |
| A3G U25C C38U U41C U54C U72C | 0.23 |
| A3G U25C C39G A57G U60A U67C | 0.06 |
| A3G U25C C50A | 0.44 |
| A3G U25C C50U A56G | 0.32 |
| A3G U25C C71G U78A | 0.24 |
| A3G U25C G42A G73A | 0.73 |
| A3G U25C U26A C39A U60C U66C G70A | 0.07 |
| A3G U25C U26C C44U U66A | 0.1 |
| A3G U25C U26C U54C U69C | 0.07 |
| A3G U25C U31A | 0.57 |
| A3G U25C U31A A56G U72C | 0.39 |
| A3G U25C U31A U49C A56U A77U U78C | 0.26 |
| A3G U25C U31A U51C A57G A75C | 0.13 |
| A3G U25C U31C | 0.13 |
| A3G U25C U31C U54C | 0.14 |
| A3G U25C U41A G53A U74C U80A | 0.29 |

| Variant | self-cleavage |
| --- | --- |
| A3G U25C U41A U67C | 0.03 |
| A3G U25C U41C | 0.59 |
| A3G U25C U43A | 0.19 |
| A3G U25C U43A A47G | 0.39 |
| A3G U25C U43C U49C U67A | 0 |
| A3G U25C U48C U49C G52A U54C C68U | 0.05 |
| A3G U25C U54G A56C U80A | 0.05 |
| A3G U25C U58A U60G A75U | 0.07 |
| A3G U25C U58C | 0.13 |
| A3G U25C U60A | 0.06 |
| A3G U25G A35U U41A A65G U78A | 0.02 |
| A3G U25G A45U | 0.35 |
| A3G U25G A47U U80C | 0.1 |
| A3G U25G U26A | 0.76 |
| A3G U25G U80C | 0.44 |
| A3G U26A A28G U67C U69C | 0.2 |
| A3G U26A A35U | 0.48 |
| A3G U26A A35U U43A U69C | 0.35 |
| A3G U26A A45U G46A A56G A77U | 0.37 |
| A3G U26A A45U U49C U51G A57G U80C | 0.24 |
| A3G U26A A47C U60A | 0.08 |
| A3G U26A A56G U58C U69C | 0.23 |
| A3G U26A A57U | 0.33 |
| A3G U26A A65U | 0.49 |

| Variant | self-cleavage |
| --- | --- |
| A3G U26A G30A U78C | 0.11 |
| A3G U26A G42A U48C | 0.05 |
| A3G U26A U41A | 0.49 |
| A3G U26A U78A | 0.96 |
| A3G U26C A28G A45G C81U | 0.19 |
| A3G U26C A28G U31C | 0.03 |
| A3G U26C A28G U31C C32A U54C U60C | 0.13 |
| A3G U26C A28U A57C | 0.17 |
| A3G U26C A28U A65G | 0.28 |
| A3G U26C A56G A64G A75G | 0.23 |
| A3G U26C A57G C68A U69G | 0.19 |
| A3G U26C C29A U41C A65U | 0.24 |
| A3G U26C C29U U41A U76A | 0.1 |
| A3G U26C C39U U69C | 0.13 |
| A3G U26C C39U U74C U80C | 0.71 |
| A3G U26C C40U U48C | 0.11 |
| A3G U26C C59G G61A U78C | 0.15 |
| A3G U26C C62G U69A | 0.2 |
| A3G U26C G30A G73U C79A | 0.55 |
| A3G U26C G36A | 0.29 |
| A3G U26C G42A U43A | 0.35 |
| A3G U26C U31A A45G | 0.53 |
| A3G U26C U31A U43C U60A | 0.27 |
| A3G U26C U31C A45U U60C U67A U69A | 0.09 |

| Variant | self-cleavage |
| --- | --- |
| A3G U26C U31C A56U | 0.17 |
| A3G U26C U31C C62U A64G C68U | 0.11 |
| A3G U26C U31G A35G U51C A65G | 0.24 |
| A3G U26C U41A A56U | 0.45 |
| A3G U26C U41C U48C A56U | 0.13 |
| A3G U26C U48A | 0.38 |
| A3G U26C U48C U76C | 0.14 |
| A3G U26C U49A U54C A64U | 0.25 |
| A3G U26C U54A A65G | 0.12 |
| A3G U26C U58C U66C | 0.19 |
| A3G U26C U58C U66C G73U U78A | 0.1 |
| A3G U26C U80C | 0.75 |
| A3G U26G A35U C62U U76C | 0.04 |
| A3G U26G U31C U72A | 0.36 |
| A3G U26G U69A A75U | 0.22 |
| A3G U26G U80A | 0.71 |
| A3G U31A A35U U41C U78C U80C | 0.12 |
| A3G U31A A45C G63C U67A | 0.03 |
| A3G U31A A45G | 0.33 |
| A3G U31A A47G | 0.71 |
| A3G U31A G55U | 0.56 |
| A3G U31A U43C C62A | 0.21 |
| A3G U31A U51C U76A A77U | 0.29 |
| A3G U31C A35U U54C U72C | 0.19 |

| Variant | self-cleavage |
| --- | --- |
| A3G U31C A35U U72C | 0.56 |
| A3G U31C A56U U69C U80G | 0.17 |
| A3G U31C A56U U80G | 0.62 |
| A3G U31C C32A | 0.44 |
| A3G U31C C40U C50U C62A U74A A75U | 0.18 |
| A3G U31C C62U U66C | 0.18 |
| A3G U31C G55U A64G U74A U78C | 0.58 |
| A3G U31C G61C A77G | 0.22 |
| A3G U31C U41A G53U A56U U72A | 0.07 |
| A3G U31C U41A G53U A75G | 0.1 |
| A3G U31C U41C | 0.29 |
| A3G U31C U48A A56G U67C | 0.08 |
| A3G U31C U60C U78C | 0.35 |
| A3G U31C U60G C62U | 0.29 |
| A3G U31G A45U G52A | 0.57 |
| A3G U31G A47G U58A A65G | 0.38 |
| A3G U31G A57G | 0.54 |
| A3G U31G A65G | 0.36 |
| A3G U31G A65G U78C | 0.22 |
| A3G U41A A45G G70C | 0.21 |
| A3G U41A A47G U78A | 0.56 |
| A3G U41A A56G | 0.51 |
| A3G U41A A56U | 0.27 |
| A3G U41A A57G U66C | 0.19 |

| Variant | self-cleavage |
| --- | --- |
| A3G U41A A75G | 0.53 |
| A3G U41A G46A A77G | 0.1 |
| A3G U41A G46A U49A | 0.26 |
| A3G U41A G55A U69C | 0.21 |
| A3G U41A U43A | 0.43 |
| A3G U41A U43A C59U | 0.15 |
| A3G U41A U49A U58C | 0.35 |
| A3G U41A U49C U60G | 0.4 |
| A3G U41A U51C U66A | 0.33 |
| A3G U41A U54C A64U U69C U72C | 0.16 |
| A3G U41C A45G | 0.91 |
| A3G U41C A45G U51A G52A U72C | 0.4 |
| A3G U41C A45U | 0.67 |
| A3G U41C A56U | 0.69 |
| A3G U41C A56U U58C U66C | 0.25 |
| A3G U41C A57G A65G | 0.3 |
| A3G U41C A65G | 0.72 |
| A3G U41C G42U A45G A47G | 0.2 |
| A3G U41C G55A U58C | 0.15 |
| A3G U41C G55U A56G A77G | 0.99 |
| A3G U41C G55U U67C U69C | 0.29 |
| A3G U41C U43C A56G | 0.74 |
| A3G U41C U43C U60A U69C | 0.09 |
